Data on 88 compounds can be found in PubChem BioAssay AID463173 (ICCB-Longwood Screening Facility, Harvard Medical School, 2010).

The campaign covered roughly 52,000 compounds. About 1,700 (3.3%) were called active. No stated cut-off is given here; in the data, active means survival mostly below about 52% (no sharp cut-off); inactive means mostly above about 56%. This is one part of the list.

In the experiment the test system is Wild type. Description: S. aureus survival, RN4220 and DeltatarO strains – OD600, teichoic acid synthesis inhibitors, primary screen (AID 463173). Particulars: S. aureus RN4220 wild type/DeltatarO growth, OD600, 18 h, active compounds read low, screened at 18.75 µg/mL (by protocol).
On to `CCCCN(C(=O)c1cccc(S(=O)(=O)N2CCCCC2)c1)C1CCS(=O)(=O)C1` (stereo not drawn), for which the survival was inactive: 127%.

Consider `COc1ccc(C2CC(=O)c3c([nH]c(C(=O)OC4CCC(C)CC4)c3C)C2)cc1OC` (stereo not drawn), for which the survival was inactive: 79%.

Consider `O=C(Nc1ccc(F)c(Cl)c1)N1CCN2CCCCC2C1` (stereo not drawn), for which the survival is inactive: 66%.

As for `COCCCNC(=O)c1sc2ncccc2c1-n1cccc1`, the survival is inactive: 78%.

With `CCc1cccc2sc(N3CCN(C(=O)C4CC4)CC3)nc12`, the survival is inactive: 87%.

For `Cc1cc(NC(c2nnc(-c3ccccc3)o2)c2ccccc2F)ccc1Br` (stereo not drawn), the survival was active: 9%.

Regarding `CCN(CC)c1ccc(-c2nc(-c3ccncc3)no2)cc1[N+](=O)[O-]`, the survival is inactive: 84%.

Take `Cc1ccc2cccc(NC(=O)c3cccc4ccccc34)c2n1`: the survival is active: -10%.

As for `COc1ccc(NCc2ccccc2-c2nnc(-c3ccccc3)o2)cc1Cl`, the survival was inactive: 90%.

For the compound `Cc1sc2nc(SCC(=O)N(CCO)CCO)n(C3CCCCC3)c(=O)c2c1C`, the survival is inactive: 106%.

As to `CC(C)(C)OC(=O)N1CCC(c2c(C(=O)N3CCc4ccccc4C3)cnn2-c2ccc(Cl)cc2)CC1`, the survival was inactive: 81%.

In the case of `CCOc1ccccc1C(=O)N(Cc1ccc(N(C)C)cc1)CC1CCCO1` (stereo not drawn), the survival is inactive: 86%.

Take `CCS(=O)(=O)Nc1cc(-c2cn3ccc(C)cc3n2)ccc1C`: the survival is inactive: 78%.

For `CCN1C(=O)c2cccc3c(S(=O)(=O)Nc4ccc(O)c(C(=O)O)c4)ccc1c23`, the survival was inactive: 76%.

On to `Cc1cc(C)cc(C(=O)N2CC(=O)Nc3ccc(C)cc3C2c2ccccc2)c1` (stereo not drawn), for which the survival was inactive: 74%.

In the case of `CCCCNC(=O)CSc1nc2cc3c(cc2c(=O)n1CCCC(=O)NCc1ccc2c(c1)OCO2)OCO3`, the survival is inactive: 87%.

For `CCOc1ccc2[nH]c(=O)c(CN(CCOC)C(=O)Nc3ccccc3C)cc2c1`, the survival was inactive: 115%.

Consider `Cc1ccc(CN(C(=O)c2ccc(C(C)(C)C)cc2)c2ccccn2)o1`, for which the survival was inactive: 86%.

For `COc1ccccc1NC(=O)CSc1ncc2c(n1)-c1ccccc1N(Cc1ccccc1C)S2(=O)=O`, the survival was inactive: 75%.

Take `CC(C)CC(=O)Nc1ccc2nc(SCC(=O)N3CCc4ccccc43)sc2c1`: the survival was inactive: 102%.

As for `CCOc1ccccc1CNC(=O)c1sc2ncccc2c1-n1cccc1`, the survival is inactive: 95%.

Take `Cc1nonc1C(=O)NCC(=O)O`: the survival was inactive: 91%.

As for `CCOc1cc(C2c3c(-c4cc(C)ccc4O)n[nH]c3C(=O)N2CCCOC(C)C)ccc1O` (stereo not drawn), the survival is inactive: 105%.

Take `COc1cccc(Cn2c(SCC(=O)N3CCN(c4ccc(F)cc4)CC3)nc3ccccc32)c1`: the survival was inactive: 66%.

On to `O=C(COC(=O)c1cc(-c2cccs2)nc2ccccc12)c1ccc(F)cc1`, for which the survival is inactive: 65%.

With `O=C(CSc1nnc(-c2ccc3c(c2)OCO3)o1)Oc1ccccc1`, the survival is inactive: 85%.

As for `CCn1ccc2cc(S(=O)(=O)N3CCCN(C(=O)Nc4ccccc4F)CC3)ccc21`, the survival is inactive: 78%.

Take `CCOc1ccc(-n2c(SCC(=O)Nc3cc(C)ccc3C)nc3c([nH]c4ccccc43)c2=O)cc1`: the survival is inactive: 59%.

Regarding `CCC(C)n1c(=O)c2sccc2n2c(CCCC(=O)N3CCN(c4ccccc4)CC3)nnc12` (stereo not drawn), the survival was inactive: 97%.

In the case of `O=C(Cn1c(=O)n(Cc2nc(-c3ccccc3)no2)c(=O)c2cc3c(cc21)OCO3)Nc1ccccc1`, the survival was inactive: 84%.

Regarding `O=C(Nc1cc(-c2ccccc2)sc1C(=O)O)c1cccc(F)c1`, the survival is inactive: 80%.

Regarding `C/C(=N\NC(=O)c1ccco1)c1ccc(C)o1`, the survival was inactive: 122%.

In the case of `COc1ccc(CNC(=O)c2sc3nc4n(c(=O)c3c2C)CCCC4)cc1`, the survival was inactive: 86%.

For the compound `COc1cccc(Cc2nc3ccccc3nc2SCC(=O)Nc2cccc(C)c2)c1`, the survival is inactive: 128%.

On to `Cc1ccc(Cn2cc(S(=O)(=O)c3cccc(C)c3)c(=O)c3cc(F)c(N4CCOCC4)cc32)cc1`, for which the survival is inactive: 82%.

Consider `O=C(Cc1ccccc1)Nc1sc2c(c1C(=O)Nc1ccccc1Cl)CCCCC2`, for which the survival is inactive: 78%.

As for `COc1ccc2c(c1)CCc1c(C(=O)Nc3cc(OC)c(Cl)cc3OC)noc1-2`, the survival was inactive: 129%.

Consider `COC(=O)c1cc(Nc2nc3ccccc3nc2NS(=O)(=O)c2ccc(C)cc2)ccc1Cl`, for which the survival was inactive: 47%.

With `Cc1cc(C)n(-c2nc(N(c3ccccc3)c3ccccc3)nc(-n3nc(C)cc3C)n2)n1`, the survival was inactive: 105%.

For the compound `CC(C)c1ccc(NC(=O)CSC2=Nc3ccccc3C3=NC(CCC(=O)NC4CCCCC4)C(=O)N23)cc1` (stereo not drawn), the survival was inactive: 78%.

On to `Cc1cccc(Nc2ncnc3onc(-c4ccc(Cl)cc4)c23)c1C`, for which the survival is inactive: 121%.

For `Cc1cc(F)ccc1NC(=O)C(c1ccccc1)N1Cc2ccccc2C1=O` (stereo not drawn), the survival was inactive: 87%.

With `COC(=O)c1ccc([C@@H]2Nc3c(OC)ccc(C)c3[C@@H]3C=CC[C@@H]32)cc1`, the survival is inactive: 77%.

On to `Nc1c(C(=O)Nc2ccc(F)cc2)sc2nc(-c3cccs3)cc(C(F)(F)F)c12`, for which the survival is inactive: 69%.

Consider `COc1ccc(C(=O)Nc2cccc(C(=O)OCc3cc(=O)n4nc(C5CC5)sc4n3)c2)cc1`, for which the survival was inactive: 111%.

Consider `Cc1ccc2oc3c(c(=O)c2c1)C(c1ccc(O)cc1)N(CCCN(C)C)C3=O` (stereo not drawn), for which the survival was inactive: 144%.

For `Cc1ccc(-n2c(=O)c3cccnc3n2CC(=O)NCc2ccc(Cl)cc2)cc1`, the survival was inactive: 69%.

With `CC1N=C2c3ccccc3N=C(SCC(=O)NCCc3ccc(Cl)cc3)N2C1=O` (stereo not drawn), the survival was inactive: 69%.

On to `CCn1c2ccccc2c2cc(CN3CCN(Cc4ccc(Br)cc4)CC3)ccc21`, for which the survival was active: 3%.

Regarding `Cc1ccccc1NC(=O)CSc1nccc(=O)[nH]1`, the survival was inactive: 96%.

Regarding `O=C(CCS(=O)(=O)c1cc2c(cc1Cl)NC(=O)CO2)NCc1ccc(Cl)cc1`, the survival was inactive: 88%.

Turning to `O=c1cc(-c2ccccc2)c2ccc3c(c2o1)CN(Cc1cccc(Cl)c1)CO3`, the survival is inactive: 66%.

Take `COc1ccc2[nH]cc(CCN=C(NC(=O)c3ccccc3F)Nc3nc(C)cc(C)n3)c2c1`: the survival is inactive: 96%.

As to `CCOc1ccc(CC(=O)Nc2cccc(-c3nc4cccnc4s3)c2C)cc1`, the survival is inactive: 95%.

As for `Cc1ccccc1NC(=O)Cn1c(=O)n(CCCC(=O)NCc2ccc3c(c2)OCO3)c(=O)c2ccccc21`, the survival is inactive: 91%.

`NCCSC1CC(=O)N(c2ccc(Cl)cc2)C1=O` (stereo not drawn): the survival is inactive: 105%.

Regarding `C=C(C)CSc1nc2sc3c(c2c(=O)n1Cc1ccccc1)CC(C)(CC)OC3` (stereo not drawn), the survival is inactive: 39%.

On to `Cc1c(C(=O)Nc2ccccc2Br)oc2ccc(S(=O)(=O)N3CCCCCC3)cc12`, for which the survival was inactive: 83%.

For `Cc1ccc(-c2cn3cccnc3n2)cc1NC(=O)C(C)(C)Oc1ccc(Cl)cc1`, the survival was inactive: 80%.

On to `COc1ccc(Cl)cc1NC(=O)c1c(NCc2ccc(C)o2)sc2c1CCC(C)C2` (stereo not drawn), for which the survival is inactive: 71%.

On to `COc1cccc(NCc2cccn2-c2nnc(N3CCC(C)CC3)s2)c1`, for which the survival was inactive: 131%.

For `CCC(C)NC(=O)CN1C(=O)c2cccnc2Sc2ccccc21` (stereo not drawn), the survival was inactive: 112%.

Consider `COc1ccc(NC(=O)C2CCC(CNS(=O)(=O)c3cccc4nsnc34)CC2)cc1OC` (stereo not drawn), for which the survival was inactive: 87%.

Take `CCCOC(=O)c1cccc(Nc2nc(CCC)cc(=O)[nH]2)c1`: the survival is inactive: 63%.

As for `Cc1ccc(CN2C(=O)C(O)(c3c(C)[nH]c4ccccc34)c3ccccc32)cc1` (stereo not drawn), the survival was inactive: 101%.

For `COC(=O)c1cc2oc(C)cc2n1Cc1ccccc1Cl`, the survival was active: -2%.

In the case of `Cc1nc2cc(-c3ccccc3)nn2c(C)c1CCC(=O)N1CCN(c2ccc(F)cc2)CC1`, the survival was inactive: 59%.

`COCCNC(=O)CCCn1c(SCC(=O)Nc2ccc(F)cc2)nc2c(sc3ccccc32)c1=O`: the survival is inactive: 103%.

As to `CCOC(=O)Cn1c(=N)n(Cc2ccc(C(C)(C)C)cc2)c2ccccc21`, the survival is inactive: 95%.

For the compound `COc1ccc(C(=O)n2nc(N)c3cc4ccc(C)cc4nc32)cc1OC`, the survival is inactive: 92%.

Turning to `CC1CCN(C(=O)c2c(NC(=O)c3ccccc3Cl)sc3c2CCC(C(C)(C)C)C3)CC1` (stereo not drawn), the survival is active: 2%.

On to `COc1ccccc1C1NC(=O)c2n[nH]c(-c3cccs3)c21` (stereo not drawn), for which the survival was inactive: 70%.

On to `Cc1cc(C)cc(-n2ccnc2SCC(=O)Nc2cccc3ccccc23)c1`, for which the survival was inactive: 73%.

`COc1cc(C2CC(=O)N(Cc3cccc(F)c3)c3ccccc3S2)cc(OC)c1OC` (stereo not drawn): the survival is inactive: 83%.

Consider `Cc1cc2nc(-c3ccc(OCc4ccccc4C)cc3)cc(C(F)(F)F)n2n1`, for which the survival was inactive: 27%.

As to `COc1ccc(N2C(=O)NC(NS(=O)(=O)c3ccc(Cl)cc3)(C(F)(F)F)C2=O)cc1` (stereo not drawn), the survival was inactive: 151%.

For `Cc1ccccc1-c1nc(CN2CCCC(C(=O)NCc3ccc(Cl)cc3)C2)c(C)o1` (stereo not drawn), the survival was inactive: 68%.

As for `CNC(=O)C1CCC(Cn2c(=O)c3sccc3n(Cc3cc(C)ccc3C)c2=O)CC1` (stereo not drawn), the survival is inactive: 60%.

With `COc1ccc([N+](=O)[O-])cc1NC(c1nnc(-c2ccccc2)o1)c1ccccc1F` (stereo not drawn), the survival was inactive: 84%.

With `CCc1ccc(S(=O)(=O)c2cn(CC(=O)Nc3ccc(F)c(Cl)c3)c3ccccc3c2=O)cc1`, the survival was inactive: 56%.

Turning to `CCN(C(=O)Cn1c(C(=O)OC)cc2sc(Cl)cc21)c1cccc(C)c1`, the survival was inactive: 92%.

Consider `COc1ccc(C2C(=O)N(C3CCCCC3)CC(=O)N2CCc2ccc(C)cc2)cc1OC` (stereo not drawn), for which the survival was inactive: 82%.

As to `CSc1nc(NCCOC(C)=O)c(C#N)c(-c2ccc(C(C)(C)C)cc2)n1`, the survival is inactive: 88%.

With `Cc1ccc2nc(CN3CCN(C(=O)Nc4ccc(F)cc4)CC3)oc2c1`, the survival was inactive: 87%.

Regarding `O=C(COc1ccccc1F)Nc1ccc2nc(SCC(=O)N3CCc4ccccc43)sc2c1`, the survival is inactive: 82%.

In the case of `O=S(=O)(c1ccc2ccccc2c1)N1CCCCCC1`, the survival was inactive: 112%.

As to `N/C(=N\OC(=O)c1ccccc1)c1cccnc1`, the survival was inactive: 109%.

In the case of `COc1ccc(NC(=O)CCc2c(C)nc3c(c2C)c(=O)n(C)c(=O)n3C)c(OC)c1`, the survival was inactive: 76%.
